Experimental data published in PubChem BioAssay AID1345082 (National Center for Advancing Translational Sciences (NCATS), 2018).
Values joined by “and” are separate entries in the source; they are usually repeats but may differ in a detail not shown here. Identical values can stand only once. Screen size: about 94,000 compounds; about 4,000 (4.3%) were called active. This list was built around the results that the source calls inconclusive (neither active nor inactive); the mix of calls is not that of the screen. The call rests on the fitted dose curve; in most records, active means well fitted inhibition curve with a large enough effect; inconclusive means small, poorly fitted or top-dose-only effect; inactive means no such curve, though single readings can be large or run the other way. A potency beside an inconclusive call is a rough fit, not a confirmed value.

Assay: Cytotoxic Profiling in NIH 3T3 Cell Line of Diverse Libraries Using Quantitative High-Throughput Screening; further: nearly all actives have a fitted effect of over 55% in size
Settings: NIH 3T3 viability, CellTiter-Glo ATP luminescence, 48-72 h; series mostly up to 96.7 µM
In short: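 Viability of NIH 3T3 cells after 48 or 72 hr compound treatment at 37 °C was assessed by CellTiter-Glo, with luminescence imaged following a 10 min room-temperature step.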
Potency means the concentration at half of the fitted maximal effect; tags describe the fitted curve by direction and shape.

| SMILES | Potency |
| --- | --- |
| Cc1nn(C)c(C)c1S(=O)(=O)N1CCC2(CC1)CC(Cc1cccc(F)c1)CCO2 (stereo unspecified) | inconclusive: 50.1 µM [inhibitor, partial curve, poor fit] |
| CSc1ccc(-c2nc(CN3CCN(C(C)=O)CC3)c(C)o2)cc1 | inactive |
| CC(C)(Oc1nn(CC2CCOCC2)c2ccccc12)C(=O)NCC1CCOCC1 | inconclusive: 100 µM [inhibitor, partial curve, poor fit] |
| O=C(NC1CCCN(c2ccc3nnc(C4CC4)n3n2)C1)C1CCCC1 (stereo unspecified) | inconclusive: 89.1 µM [inhibitor, partial curve, poor fit] |
| COc1cccc(CC(=O)N2CC3CC(C2)[C@H]2CCCC(=O)N2C3)c1 (stereo partly specified) | inactive |
| CSc1cccc(NC(=O)Cn2c(Nc3cc(C)cc(C)c3)nc(C)cc2=O)c1 | inconclusive: 50.1 µM [inhibitor, partial curve, poor fit] |
| CC1=C[C@@H](CC#N)[C@H](C(C)C)C[C@H]1CC(=O)NC1CCCCC1 | inconclusive: 79.4 µM [inhibitor, partial curve, poor fit] |
| COc1ccc(N2CCN(C(=O)c3ccc4c(c3)C(O)CCCCCN4C)CC2)cc1 (stereo unspecified) | inconclusive: 50.1 µM [inhibitor, partial curve, poor fit] |
| Cc1ccc(-c2noc([C@@H]3Cc4nc[nH]c4CN3Cc3ccc(N(C)C)cc3)n2)cc1 | active: 100 µM |
| CN1CCOc2c(C(=O)NCCN3CCNC3=O)cc(-c3cccc4[nH]ccc34)cc21 | inactive |
| COCCN1CCCN(C(=O)C2CCCCC2)c2ccccc21 | inconclusive: 44.7 µM [inhibitor, partial curve, poor fit] |
| COCCc1noc(-c2ccccc2OC2CNC2)n1 | inactive |
| C[S+](=O)([O-])c1ccc(-c2cc(C(=O)NCC(F)F)nn3cccc23)cc1 | inconclusive: 50.1 µM [inhibitor, partial curve, poor fit] |
| CC(C)(C)c1nnc2ccc(C(=O)NCC3CC3)cn12 | inactive |
| CC(c1ccc(F)cc1)N1Cc2cc(NC(=O)c3cccs3)ccc2OCC1=O (stereo unspecified) | inconclusive: 35.5 µM [inhibitor, full curve, poor fit] |
| Fc1ccc2nc([C@H]3CCN(Cc4ncc[nH]4)C3)[nH]c2c1 | inconclusive: 112 µM [inhibitor, partial curve, poor fit] |
| COC(=O)[C@@H]1Cc2ncn(Cc3ccccc3)c2CN1S(=O)(=O)c1cccs1 | inactive |
| Cc1nn(-c2ccccc2)c2c1C(C)N(CC1CN(C(=O)c3ccc4c(c3)OCO4)C1)C2=O (stereo unspecified) | active: 20 µM |
| OC1CN(Cc2ccc(-c3cnc4c(OCc5ccccc5)nccn34)cc2)C1 | active: 89.1 µM |
| CCn1cc(-c2ccc(Cl)cc2)cc1C(=O)NCc1ccncc1 | inconclusive: 31.6 µM [inhibitor, partial curve] |
| O=C(c1ccc(Cl)nc1)N1CCN(c2ccc3nnc(C4CC4)n3n2)CC1 | inactive |
| COCc1ccc2c(c1)c(OC(C)(C)C(=O)NCCCN1CCCC1=O)nn2CCC(C)C | active: 31.6 µM |

| SMILES | Potency |
| --- | --- |
| COc1ccc(C2Cn3nnc(-c4noc(-c5ccc(Cl)cc5OC)n4)c3CO2)cc1 (stereo unspecified) | inactive |
| COc1cc(F)ccc1-c1cc(C(=O)NCc2c(C)cc(C)[nH]c2=O)c2c(c1)ncn2C | active: 25.1 µM |
| Cc1ccc(NC(=O)c2ccc3c(c2)N(C)C2CCCCN2C3=O)cc1Cl (stereo unspecified) | inactive |
| CCn1nc(C)c(-c2cc(C(=O)N3CCc4nc5cc(-c6ccccc6)[nH]n5c(=O)c4C3)no2)c1C | inactive |
| Cn1nccc1C(=O)N1CCC(Oc2ccc(-c3noc(-c4ccccc4)n3)cc2)C1 (stereo unspecified) | inconclusive: 50.1 µM [inhibitor, partial curve, poor fit] |
| O=C(c1cc(F)ccc1Cl)N1CCN(c2cc(-c3ccccc3)[nH]n2)CC1 | inconclusive: 28.2 µM [inhibitor, partial curve] |
| OC1(CN2CCN(CCc3ccccn3)CC2)CCCNC1 (stereo unspecified) | inactive |
| COCCn1c(=O)c(C(=O)N2CCN(c3ncccn3)CC2)nc2cccnc21 | inactive |
| CC(C)OCCCNC(=O)c1ccc(Cn2ccn3nc4c(c3c2=O)CCCC4)cc1 | inconclusive: 44.7 µM [inhibitor, partial curve, poor fit] |
| COc1ccccc1-c1nc(C(=O)NC(C)C)n2ccncc12 | inconclusive: 44.7 µM [inhibitor, partial curve, poor fit] |
| C[C@H]1[C@@H]2[C@H]3OC(=O)[C@@H](C)[C@@H]3CC[C@@]2(C)CC[C@@H]1NC(=O)c1ccc(C#N)cc1 | active: 89.1 µM |
| COc1cccc(NC(=O)c2cc(-c3ccc(C(F)(F)F)cc3)nc3c2cnn3C)c1 | inconclusive: 50.1 µM [inhibitor, partial curve, poor fit] |
| COCC(=O)N[C@@H]1CN(S(=O)(=O)c2cn(C)cn2)CC[C@@H]1c1nc(C)no1 | inactive |
| Cc1cnc(C2CCN(S(=O)(=O)c3ccc4c(c3)CCC4)C2)n1C(C)C (stereo unspecified) | inactive |
| O=C(Cc1cccc(F)c1)N1CCC2(CC1)N=C(c1ccc(Cl)cc1)NO2 | inconclusive: 11.2 µM [inhibitor, partial curve, poor fit] |
| O=C(c1cccc(F)c1)N1CCC(CCOc2ccc(F)cc2)C1 (stereo unspecified) | active: 39.8 µM |
| O=C1OC[C@@H]2CCN(Cc3ccc(Cl)cc3)Cc3ccc(F)cc3N12 | inconclusive: 112 µM [inhibitor, partial curve, poor fit] |
| C=CCN1Cc2cc(F)ccc2N(CC(O)COc2ccccc2)CCC1=O (stereo unspecified) | inconclusive: 56.2 µM [inhibitor, partial curve, poor fit] |
| COc1ccc(-c2cc(N3CCCN(C(=O)Cc4ccccc4Br)CC3)n[nH]2)cc1 | inconclusive: 44.7 µM [inhibitor, partial curve, poor fit] |
| Cc1cnc(C(=O)N2CCc3onc(-c4ccc(F)c(F)c4)c3C2)cn1 | inconclusive: 50.1 µM [inhibitor, partial curve, poor fit] |
| CCN1CCN(C(=O)C2CCCN2C(=O)c2cccc(-c3cccc(OC)c3)c2)CC1 (stereo unspecified) | inactive |
| CN(Cc1cn(C)c2ccccc12)C1CCc2nn(CC3CC3)c(=O)n2CC1 (stereo unspecified) | active: 35.5 µM |

| SMILES | Potency |
| --- | --- |
| O=C(c1ccccc1)N1CCC(NCCOc2ccccc2F)CC1 | inactive |
| CC(=O)NC(C)c1nnc2n1CCN(C(=O)c1ccccc1)C2 (stereo unspecified) | inactive |
| COc1cc(OC)cc(-c2onc(C)c2C(=O)NCCCCc2ccccc2)c1 | inconclusive: 44.7 µM [inhibitor, partial curve, poor fit] |
| COc1cccc(-c2ccc(CN3CCCC3C(=O)N3CCN(c4ncccn4)CC3)cc2)c1 (stereo unspecified) | active: 20 µM |
| C=CCNC(=O)N1[C@@H](c2ccccc2)[C@@H](C(=O)OCC)C[C@]12CCCCN(CCOC)C2=O | inconclusive: 50.1 µM [inhibitor, partial curve, poor fit] |
| Cc1noc(-c2ccccc2Cl)c1C(=O)NCc1ccccc1Cl | inconclusive: 50.1 µM [inhibitor, partial curve, poor fit] |
| CS(=O)(=O)c1ccc(CN2CC[C@@H](c3ccc4ccccc4c3)[C@H](O)C2)cc1 | inconclusive: 35.5 µM [inhibitor, partial curve] |
| CCOc1ccccc1NC(=O)N1CC[C@H]2COC(=O)N(Cc3ccccc3)[C@H]2C1 | inactive |
| O=C1NC(=NC2CCCC2)C2(CCCN([S+](=O)([O-])c3cccc(C(F)(F)F)c3)C2)N1c1cc(F)cc(F)c1 (stereo unspecified) | inactive and inconclusive: 44.7 µM [inhibitor, partial curve, poor fit] |
| Cc1ccc(C(=O)N2CCCCC2c2nc(-c3ccccc3)n[nH]2)cn1 (stereo unspecified) | inactive |
| COc1cccc(OCC2CN(Cc3cccc(C(F)(F)F)c3)C(=O)c3c(ccnc3-c3ccc(OCC(=O)O)cc3)O2)c1OC (stereo unspecified) | inconclusive: 50.1 µM [inhibitor, partial curve, poor fit] |
| CCOc1ccc(CN2CC(Oc3ccccc3C(=O)NCc3ccccc3)C2)cc1 | inconclusive: 44.7 µM [inhibitor, partial curve, poor fit] |
| O=C(C1CCC1)N1CCC(Oc2cccc(F)c2)C1 (stereo unspecified) | inactive |
| O=C(NCc1nnc2ccc(-c3ccccc3)nn12)c1cc(Cl)ccc1F | inactive |
| CC1(c2ccccc2)N(Cc2ccccc2C#N)C(=O)OC12CCN(CCc1ccccc1)CC2 (stereo unspecified) | inconclusive: 70.8 µM [inhibitor, single point] |
| CCOc1ccccc1C(=O)N1CCN(c2cc(-c3ccc(Cl)cc3)[nH]n2)CC1 | active: 17.8 µM |
| O=[S+]1([O-])[C@@H](c2ccccc2)[C@H](COCc2ccccc2)CN1c1ccccc1 | inconclusive: 35.5 µM [inhibitor, partial curve, poor fit] |
| O=C(Nc1ccc(F)cc1)c1ccc2c(c1)OCCN(C1CCC1)C2 | inconclusive: 10 µM [inhibitor, full curve, poor fit] |
| CCC1Oc2ccc(NC(=O)c3ccccc3Cl)cc2CN(Cc2ccccc2F)C1=O (stereo unspecified) | inconclusive: 35.5 µM [inhibitor, partial curve, poor fit] |
| CN1CCc2c([nH]c3ccccc23)C12CCN(S(=O)(=O)c1cccnc1)CC2 | inconclusive: 44.7 µM [inhibitor, partial curve, poor fit] |
| CC(C)C[C@@H]1N[C@H](C(=O)NC2CCC2)Cc2cn(Cc3nccn3C)c3cccc1c23 | active: 79.4 µM |
| COc1cccc(-c2cc(C(=O)NCc3cccc(C(F)(F)F)c3)c3cnn(C)c3n2)c1 | inconclusive: 25.1 µM [inhibitor, full curve] |
